Measurements from PubChem BioAssay AID1745853 (National Center for Advancing Translational Sciences (NCATS), 2022).
This is one part of the list. The main result of the screen is listed elsewhere. These columns were measured beside it and carry no call.

What was measured:
Assay in all cases: Primary Screen for Target Class Profiling of Small Molecule Inhibitors of Methyltransferases
[1] = target: Glycine N-methyltransferase (Homo sapiens) (UniProt Q14749); conditions: purified enzyme, MTase-Glo SAH luminescence; measured here: GNMT inhibition; at 40 µM; stronger effect = lower value
In short: (§1)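 Each enzyme was reacted with SAM and its substrate, with compounds tested once at 40 uM; SAH formed was read by MTase-Glo luminescence.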

[2] = target: Guanidinoacetate N-methyltransferase (Homo sapiens) (UniProt Q14353); conditions: purified enzyme, MTase-Glo SAH luminescence; measured here: GAMT inhibition; at 40 µM; stronger effect = lower value
In short: as §1

[3] = target: Histamine N-methyltransferase (Homo sapiens) (UniProt P50135); conditions: purified enzyme, MTase-Glo SAH luminescence; measured here: HNMT inhibition; at 40 µM; stronger effect = lower value
In short: as §1

[4] = target: Nicotinamide N-methyltransferase (Homo sapiens) (UniProt P40261); conditions: purified enzyme, MTase-Glo SAH luminescence; measured here: NNMT inhibition; at 40 µM; stronger effect = lower value
In short: as §1

[5] = target: Phenylethanolamine N-methyltransferase (Homo sapiens) (UniProt P11086); conditions: purified enzyme, MTase-Glo SAH luminescence; measured here: PNMT inhibition; at 40 µM; stronger effect = lower value
In short: as §1
On the % scale 0 is the no-effect control and ±100 the full control effect.

Row | Structure (SMILES) | activity change, negative = inhibition [1] [%] | activity change, negative = inhibition [2] [%] | activity change, negative = inhibition [3] [%] | activity change, negative = inhibition [4] [%] | activity change, negative = inhibition [5] [%]
1 | Cc1noc(C)c1C(=O)N1CCN(c2ccc(C=O)cc2)C(=O)C1 | -6.04 | -4.12 | -2.56 | -8.7 | -6.8
2 | Cc1ccc(NS(=O)(=O)c2cc3c(cc2NC(C)CO)NC(=O)CC3)cc1C (stereo not given) |  | 9.77 |  | -7.1 | -5.6
3 | CCOc1ccc(N(C(=O)c2ccc(C)cc2)S(=O)(=O)c2ccc3c(c2)n(C)c(=O)n3C)cc1 | -5.88 | 0 | -0.984 | -10.5 | -2.45
4 | COCc1nc2c([nH]1)c(=O)n(C)c(=O)n2CC(C)C | 2.42 | 7.8 | 3.6 | -6.79 | 5.35
5 | CCC(C)NC(=O)c1ccc2c(=O)n(C(C)C)c3n[nH]c(=O)n3c2c1 (stereo not given) | 0.571 | 0.803 | 6.9 | 7.07 | 1.61
6 | C=C1C(=O)O[C@H]2C[C@@H](C)[C@@H]3CCC(=O)[C@@]3(C)C[C@H]12 | -5.92 | -5.51 | 3.64 | -12.4 | -8.01
7 | Cc1[nH]c2ccccc2c1C1=C(NCCc2ccc(F)cc2)C(=O)N(C)C1=O | -2.61 | -1.67 | 3.21 | -30.4 | 0.291
8 | Clc1ccc(-c2cnc([C@@H]3COCCN3Cc3ccccc3)[nH]2)s1 | -10.7 | -4.21 | -12.6 | -16.2 | -10.7
9 | Nc1ccc(/C=C/C(=O)NCc2cc3cc(-c4ccc(C(=O)N5CCC(F)(F)CC5)cc4)cc(-c4ccc(F)cc4)c3o2)cn1 | -8.31 | -31.3 | 0.249 | -46.7 | -18.1
10 | CCCn1c(=O)c2ccc(C(=O)NC(C)CC)cc2n2c(=O)n(CC(N)=O)nc12 (stereo not given) | 2.71 | 0 | 7.63 | 2.87 | 3.08
11 | O=C(CCc1nnc2n(Cc3ccccc3Cl)c(=O)c3ccccc3n12)N1CCN(c2ccccc2)CC1 | -14.4 | -4.34 | -2.61 | -11 | -6.87
12 | O=C1NCC2(CCCN(C(=O)CCc3nc4ccccc4[nH]c3=O)C2)O1 (stereo not given) | -9.25 | -9.05 | -2.08 | -15.7 | -0.351
13 | O=C(CCc1nnc2n(Cc3ccccc3Cl)c(=O)c3ccccc3n12)N1CCN(c2ccc(F)cc2)CC1 | -10.6 | 1.02 | 1.3 | -5.77 | -0.153
14 | CC1c2ccccc2CN1NC(=O)c1ccc(Cl)c(S(N)(=O)=O)c1 (stereo not given) | 0.557 | 4.84 | 5.27 | -13 | -1.24
15 | O=c1ncn(CC2CC2)c2ccc(N3CCC(c4ccccc4)CC3)nc12 | -17.2 | -7.3 | -14.3 | -20.7 | -11.2
16 | CCCCNC(=O)c1ccc2c(=O)nc3c(-c4ccc(Cl)cc4)n[nH]n3c2c1 | -12.3 | 0.871 | -2.05 | -3.5 | -3.1
17 | Cc1cn2nc(C(=O)Nc3ccc4c(c3)OCCO4)cc2c(N(C)Cc2ccccc2)n1 | -9.26 | -1 | -13 | -3.73 | -1.35
18 | Cc1ccc(C(=O)Cn2nc3n(CCC(C)C)c(=O)c4ccc(C(=O)NC(C)C)cc4n3c2=O)c(C)c1 | 6.1 | 3.77 | -4.78 | 3.26 | 4.47
19 | C=CCn1c(=O)c2ccc(C(=O)NC(C)CC)cc2n2c(=O)n(CC(=O)NC3CCCC3)nc12 (stereo not given) | -0.259 | 4.67 | -1.2 | -4.21 | -1.42

Row | Structure (SMILES) | activity change, negative = inhibition [1] [%] | activity change, negative = inhibition [2] [%] | activity change, negative = inhibition [3] [%] | activity change, negative = inhibition [4] [%] | activity change, negative = inhibition [5] [%]
20 | CNC(=O)c1cn2c(n1)CN(C(=O)OCc1ccccc1)CC2 | -2.65 | -9.47 | -1.15 | -16.3 | -5.81
21 | C/C=C/C=C/C(=O)OC1CC/C=C/C(O)C(O)C(CCC)OC1=O (stereo not given) | 0 | -11.2 | 4.73 | -23.8 | -10
22 | COc1ccc(-c2n[nH]n3c2nc(=O)c2ccc(C(=O)NCc4ccc5c(c4)OCO5)cc23)cc1 | -12.2 | 2.75 | 0.651 | 1.71 | -11.4
23 | COc1cccc(CNC(=O)CNC(=O)C2(C)Cn3c(cc4ccccc43)C(=O)N2C)c1 (stereo not given) | 4.26 | 0.715 | 6.31 | 13.5 | 3.25
24 | CC(C)OCCCn1c(=O)c2ccccc2n2c(SCc3ccccc3F)nnc12 | -3.28 | 1.62 | 5.15 | -0.416 | 2.86
25 | CC(=O)Nc1nc2c(Oc3cc(-c4ccc(C(F)(F)F)cc4)ncn3)cccc2s1 | -8.13 | -23.2 | 1.33 | -35.1 | -2.27
26 | CS(=O)(=O)N1CCOc2ccc(CCC(=O)N3CCC(C(N)=O)CC3)cc2C1 | -0.065 | -3.27 | 0.351 | -0.033 | 0.355
27 | C/C=C/C[C@@H](C)[C@@H](O)[C@H]1C(=O)N[C@@H](CC)C(=O)N(C)CC(=O)N(C)[C@@H](CC(C)C)C(=O)N[C@@H](C(C)C)C(=O)N(C)[C@@H](CC(C)C)C(=O)N[C@@H](C)C(=O)N[C@H](C)C(=O)N(C)[C@@H](CC(C)C)C(=O)N(C)[C@@H](CC(C)C)C(=O)N(C)[C@H](C(C)C)C(=O)N1C | -0.202 |  | 12.6 |  | 
28 | COc1ccccc1-c1onc(C)c1C(=O)NCCc1cccc(Cl)c1 | -7.9 | -3.44 | -3.51 | -12.9 | -4.36
29 | COc1ccc(-c2cc3c(cn2)CN(CCc2ccccc2)CCN3)cc1OC | -71.9 | -16.8 | -92.6 | -56.7 | -65.8
30 | COc1ccccc1CNC(=O)C1c2c(n(C)c3ccccc23)SCC(=O)N1Cc1ccco1 (stereo not given) | 2.9 | 1.52 | -3.66 | -7.46 | 2.05
31 | Cc1nc([C@@H]2CN(Cc3ccc(C(F)(F)F)cc3)C[C@H]2C(N)=O)n[nH]1 | -4.12 | -0.277 | -1.93 | -8.35 | -4.69
32 | CCC(C)NC(=O)c1ccc2c(=O)n(C)c3nn(CC(=O)Nc4ccc(C(C)C)cc4)c(=O)n3c2c1 (stereo not given) | 4.71 | 0.501 | 5.37 | 1.86 | 5.67
33 | CC(C)c1ccc(-c2cc(=O)c3ccccc3o2)cc1 | -22.2 | -13.3 | -6.99 | -45.6 | -22.5
34 | CC1CCN(S(=O)(=O)c2ccc3c(ccn3CC(=O)NCCc3ccccc3)c2)CC1 | 13.7 | 0 | 5.71 | -1.28 | 0.366
35 | O=C(Nc1ccc(Cl)cc1Cl)c1cnn2ncccc12 | -6.15 | -13.2 | -6.47 | -20.6 | -30.8
36 | Cc1cc2c(cc3n2CC(C)(C(=O)NC2CCCCC2)N(CCc2ccccc2)C3=O)o1 (stereo not given) | 7.75 | 1.94 | 5.9 | 5.05 | 2.72
37 | CCC1Oc2ccc(NC(=O)Cc3cccs3)cc2CN(C2CCCc3ccccc32)C1=O (stereo not given) | -2.56 | -2.4 | -1.6 | -3.59 | -0.622
